The other results are listed elsewhere or left out.
Experiments:
[1] = system: HSkMC (human skeletal muscle cells); assay: cytotoxicity call (relative viability < 0.9); details: 10 µM
[2] = system: HepG2; assay: cytotoxicity call (relative viability < 0.9); details: 10 µM
[3] = system: S. aureus RN4220; assay: growth inhibition call (relative growth <= 0.2); details: 50 µM

C[C@@H]1CCCCO[C@H](CN(C)C(=O)Nc2ccc(F)cc2)[C@@H](C)CN([C@@H](C)CO)C(=O)c2cc(NC(=O)Nc3ccccc3)ccc2O1
inactive: cytotoxicity call [1] | cytotoxicity call [2] | growth inhibition call [3]

Cc1noc(C)c1S(=O)(=O)N(C)C[C@H]1OCCCC[C@@H](C)Oc2ccc(NS(C)(=O)=O)cc2C(=O)N([C@@H](C)CO)C[C@H]1C
inactive: cytotoxicity call [1] | cytotoxicity call [2] | growth inhibition call [3]

CN1CCc2nc(C(=O)NC3CC(C(=O)N(C)C)CCC3NC(=O)C(=O)Nc3ccc(Cl)cn3)sc2C1.Cc1ccc(S(=O)(=O)O)cc1.O (stereo not given)
inactive: cytotoxicity call [1] | cytotoxicity call [2] | growth inhibition call [3]

COc1ccc(NC(=O)N(C)C[C@@H]2Oc3c(NC(=O)C4CCOCC4)cccc3C(=O)N([C@H](C)CO)C[C@@H]2C)cc1
inactive: cytotoxicity call [1] | cytotoxicity call [2] | growth inhibition call [3]

COc1cccc(C(=O)NCC(=O)O)c1
inactive: cytotoxicity call [1] | cytotoxicity call [2] | growth inhibition call [3]

Cc1noc(C)c1S(=O)(=O)Nc1ccc2c(c1)C(=O)N([C@H](C)CO)C[C@@H](C)[C@@H](CN(C)C(=O)Nc1ccccc1)OCCCC[C@@H](C)O2
inactive: cytotoxicity call [1] | cytotoxicity call [2] | growth inhibition call [3]

C[C@@H]1CN([C@H](C)CO)C(=O)Cc2cc(NC(=O)CCN3CCOCC3)ccc2O[C@H]1CN(C)Cc1ccc(C(=O)O)cc1
inactive: cytotoxicity call [1] | cytotoxicity call [2] | growth inhibition call [3]

C[C@H](CO)N1C[C@H](C)[C@@H](CN(C)Cc2ccncc2)Oc2ccc(NC(=O)CCN3CCOCC3)cc2CC1=O
inactive: cytotoxicity call [1] | cytotoxicity call [2] | growth inhibition call [3]

CC(C)(C)CN
inactive: cytotoxicity call [1] | cytotoxicity call [2] | growth inhibition call [3]

C[C@@H]1CN([C@@H](C)CO)C(=O)Cc2cc(NC(=O)CCN3CCOCC3)ccc2O[C@@H]1CN(C)Cc1ccc2c(c1)OCO2
inactive: cytotoxicity call [1] | cytotoxicity call [2] | growth inhibition call [3]

Reference: the antibiotic and cytotoxicity screens of Wong et al. (2023)
